According to PubChem BioAssay AID1159614 (National Center for Advancing Translational Sciences (NCATS), 2016):
About 65 (0.1%) of roughly 45,000 compounds were called active. Calls come from the whole dose curve; as a rule, active = well fitted activation curve with a large enough effect; inconclusive = small, poorly fitted or top-dose-only effect; inactive = no such curve, though single readings can be large or run the other way. The list shows a part of the results.

Biological target: Galactocerebrosidase (Homo sapiens) (UniProt P54803)
Chain of UniProt P54803 (P54803 whole entry, looked up): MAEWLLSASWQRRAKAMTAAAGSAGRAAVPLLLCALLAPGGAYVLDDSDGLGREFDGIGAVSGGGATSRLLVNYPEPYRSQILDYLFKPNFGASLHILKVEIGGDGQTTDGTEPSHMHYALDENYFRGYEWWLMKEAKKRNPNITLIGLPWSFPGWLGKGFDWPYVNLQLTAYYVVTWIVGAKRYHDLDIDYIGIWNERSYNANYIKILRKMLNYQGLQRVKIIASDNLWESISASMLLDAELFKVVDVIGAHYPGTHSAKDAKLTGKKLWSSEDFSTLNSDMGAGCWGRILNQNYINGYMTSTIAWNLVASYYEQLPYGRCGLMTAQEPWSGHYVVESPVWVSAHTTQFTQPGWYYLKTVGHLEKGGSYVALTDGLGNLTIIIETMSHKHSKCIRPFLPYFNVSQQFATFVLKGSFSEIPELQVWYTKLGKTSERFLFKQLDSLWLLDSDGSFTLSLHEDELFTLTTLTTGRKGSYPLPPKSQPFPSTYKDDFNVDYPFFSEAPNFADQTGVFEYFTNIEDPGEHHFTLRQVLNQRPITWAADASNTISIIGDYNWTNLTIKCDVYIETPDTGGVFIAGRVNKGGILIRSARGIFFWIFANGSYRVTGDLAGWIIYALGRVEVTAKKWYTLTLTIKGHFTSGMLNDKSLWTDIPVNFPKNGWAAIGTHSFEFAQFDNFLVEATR
Experiment: A Novel Cell-Based Assay to Identify Small Molecules for B -Galactocerebrosidase; note: nearly all actives have a fitted effect of over 65% in size; for activation: 0% is about no effect
Settings: 145M-Twi-hGALC-G270D cells (Twitcher mouse brain line with human GALC G270D), HMU-beta-Gal fluorescence, 48 h; series mostly up to 57.5 µM; activation: at the top concentration
In short: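 Mutant human GALC (G270D), stably expressed in a Twitcher mouse brain cell line lacking endogenous GALC, is measured in live-treated cells via 6-hexadecanoylamino-4-methylumbelliferyl-β-galactoside hydrolysis (0.1 mM final, pH 5.2) with fluorescent detection.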
Potency is the fitted concentration of half-maximal effect.

SMILES	activation	Potency
CCOc1ccc(C2CC(=O)N(c3cccc(F)c3)C3=C2C(=O)OC3)cc1 (centres undefined)	inactive: -17.7%	–
Cc1ccc(-c2cn(-c3cccc(Cl)c3)c(S(=O)(=O)CC(=O)Nc3ccccc3F)n2)cc1	inactive: -12.6%	–
CCN(CC)c1cc2c(cc1F)c(=O)c(S(=O)(=O)c1cccc(C)c1)cn2C	inactive: -7.43%	–
Cc1ccc(-n2c(=O)c3ccc(C(=O)NCc4ccco4)cc3n(Cc3ccccc3C#N)c2=O)cc1	inactive: -12.2%	–
Cn1c(=O)c2cc(C(=O)NCCCN3CCN(c4ccccc4F)CC3)sc2c2ccccc21	inactive: -14%	–
COc1ccc(-n2cnc3cc(C(=O)NC4CCCC4)ccc32)cc1	inactive: -10.6%	–
O=C(CSc1c2c(nc3ccccc13)CCC2)Nc1ccc(F)cc1	inactive: -24.6%	–
COc1ccc(Cn2c(C(=O)O)c(CNCc3ccco3)c3ccc(OC)cc32)cc1	inactive: 1.32%	–
CCOC(=O)c1ccc(NC(=O)CSc2nnc3c4ccccc4n(CC)c3n2)cc1	inactive: 2.31%	–
CN(C)c1ccc(CNC(=O)c2ccc(Cn3c(=O)c4cccn4c4cccnc43)cc2)cc1	inactive: -6.21%	–
CC(C)(C)c1ccc(C(=O)NCC(c2ccco2)S(=O)(=O)c2ccc(F)cc2)cc1 (centres undefined)	inactive: -34.3%	–
COc1ccc(CNC(=O)CSc2ncc3c(n2)-c2ccc(Cl)cc2N(Cc2ccc(F)cc2)S3(=O)=O)cc1OC	inactive: -3.3%	–
COCCCNC(=O)CCCn1c(SCC(=O)c2ccc(F)cc2)nc2c(sc3ccccc32)c1=O	inactive: -14.7%	–
C#C[C@]1(O)CC[C@H]2[C@@H]3CCc4cc(O)ccc4[C@H]3CC[C@@]21C	inactive: 4.89%	–
COC(=O)c1ccccc1NC(=O)c1cnc(Nc2ccc(OC)cc2)c2ccccc12	inactive: 3.08%	–
CCc1ccc2ncc(C(=O)c3ccc(C)c(C)c3)c(N3CCC(C(N)=O)CC3)c2c1	inactive: -14.4%	–
COc1ccc(C2=Nc3ccc(F)cc3NC(c3cccc(C(F)(F)F)c3)=N2)cc1	inactive: -12.8%	–
CCCOc1ccc(C(=O)N(Cc2ccccc2Cl)C2CCS(=O)(=O)C2)cc1 (centres undefined)	inactive: -8.37%	–
Cc1cccc(N2CCN(Cc3nnc(-c4ccccc4C)o3)CC2C)c1 (centres undefined)	inactive: -19.3%	–
Cc1ccc(Cn2c(CNC(=O)CCc3ccccc3)nc3cccnc32)cc1	inactive: 1.54%	–
O=C(Cn1cnc(S(=O)(=O)N2CCCC2)c1)Nc1cccc(Br)c1	inactive: -2.71%	–
Cc1cc(-c2nc3ncccc3o2)ccc1NC(=O)c1ccccc1Br	inactive: -11.7%	–
CCCCOc1cccc(C(=O)N(Cc2ccc(N(C)C)cc2)C2CCS(=O)(=O)C2)c1 (centres undefined)	inactive: -14.2%	–
COc1ccc(CCNC(=O)Cn2c(=O)n(-c3ccccc3)c(=O)c3c(C)c(C)sc32)cc1OC	inactive: -4.98%	–

SMILES	activation	Potency
COc1cc(OC)c(-c2cc(C(=O)NCc3ccc(F)cc3)c3c(-c4ccccc4)[nH]nc3n2)cc1OC	inactive: -17%	–
CC(=O)N1c2ccc(S(=O)(=O)N3CCCCCC3)cc2CC1C(=O)NCc1ccccc1C (centres undefined)	inactive: -7.68%	–
Cc1ccc(CCNC(=O)CCCn2c(=O)c3ccccc3n(Cc3ccccc3C)c2=O)cc1	inactive: -6.7%	–
O=C(COc1ccc(F)cc1)NCC(c1ccc(Cl)cc1)N1CCCCC1 (centres undefined)	inactive: -9.54%	–
CC(=O)N1CCOc2cc(S(=O)(=O)NCc3ccc(F)cc3)c(C)cc21	inactive: -11.9%	–
COc1ccc(-n2nc(C(=O)N3CCN(c4ccccc4OC)CC3)c3c4ccccc4n(C)c3c2=O)cc1Cl	inactive: -14.9%	–
COc1ccccc1CNC(=O)CCCN1C(=O)CSc2c1c(C)nn2-c1ccccc1	inactive: -14.5%	–
CC(C)C1N=C2c3ccccc3N=C(SCC(=O)NCc3ccc(Cl)cc3)N2C1=O (centres undefined)	inactive: -14.2%	–
O=C(NC1CCCc2ccccc21)c1ccc2c(c1)sc1nc(-c3ccccc3)cn12 (centres undefined)	inactive: -18.8%	–
O=C(Nc1ccc2c(c1)CCCN2C(=O)c1cccs1)c1ccccc1	inactive: -29.1%	–
O=C(Cn1c(=O)n(Cc2ccccc2)c(=O)c2sc3ccccc3c21)Nc1ccccc1F	inactive: 1.77%	–
Cc1cc(C)cc(NC(=O)Nc2ccc3nc(N4CCN(C)CC4)cc(C)c3c2)c1	–	active: 17.8 µM
CCOc1ccc(NC(=O)Cn2ccn3nc(-c4ccc(OC)c(OC)c4)cc3c2=O)cc1	inactive: -5.8%	–
Cc1nc(N2CCCC2)c2c(C(=O)Nc3cccc(Cl)c3)c(C)oc2n1	inactive: -6.23%	–
CCCS(=O)(=O)c1nc(S(=O)(=O)c2ccc(C)cc2)c(NCc2ccccc2Cl)s1	inactive: 0.514%	–
Cc1c(C(=O)NCc2cccc(Cl)c2)sc2nc[nH]c(=O)c12	inactive: -15.1%	–
COc1cccc(Oc2nc(C)nc3c2oc2ccccc23)c1	inactive: -6.37%	–
CC(CNC(=O)CCc1cn(Cc2ccccc2Cl)c2ccccc12)c1ccccc1 (centres undefined)	inactive: -6.65%	–
CCOc1ccccc1NC(=O)C1CCN(S(=O)(=O)c2cccs2)CC1	inactive: 0.231%	–
O=C(O)CCC(=O)Nc1sc2c(c1C(=O)Nc1ccccc1)CCCCC2	inactive: -11.5%	–
COc1ccc(NC(=O)Cn2cc(C(=O)c3ccccc3)c(=O)c3cc(OC)ccc32)c(OC)c1	inactive: -10.9%	–
Cc1ccsc1CN(C(=O)c1ccc(OCC(C)C)cc1)C1CCS(=O)(=O)C1 (centres undefined)	inactive: -8.17%	–
CCc1ccc(NC(=O)c2ccc(F)c(S(=O)(=O)N3CCN(c4ccc(OC)cc4)CC3)c2)cc1	inactive: -6.68%	–
CC1(C)CC(=O)c2cc(C#N)c(=O)n(-c3ccc(Cl)cc3)c2C1	inactive: -14.3%	–

SMILES	activation	Potency
Cc1c(C(=O)OC(C)C)sc(NC(=O)C2c3ccccc3Oc3ccccc32)c1C(=O)OC(C)C	inactive: -3.95%	–
Cc1ccc(Sc2c(C)nn(C(=O)c3ccc(Cl)cc3)c2C)cc1	inactive: -8.36%	–
Cc1ccc(-n2c3nc(=O)[nH]c(=O)c-3cc3c(C)nn(-c4ccccc4)c32)cc1C	inactive: 1.52%	–
CCOC(=O)c1c(S(=O)(=O)N2CCCC(C(=O)Nc3ccc(C)cn3)C2)c(C)n(C)c1C (centres undefined)	inactive: -13.3%	–
Cc1ccc2oc(-c3cccc(NC(=O)Cc4ccc(Cl)cc4)c3)nc2c1	inactive: -7.31%	–
CCOC(=O)c1cccc(NS(=O)(=O)c2cc(-c3cnc(C4CC4)o3)ccc2C)c1	inactive: -12.2%	–
Cc1cccc(N2CCN(C(=O)c3cc4c(=O)oc5ccccc5c4s3)CC2C)c1 (centres undefined)	inactive: 21.3%	–
Cc1ccc(NC(=O)CSc2cc(=O)n(C)c3ccc(Cl)cc23)c(Br)c1	inactive: -7.33%	–
CCc1ccc(CNC(=O)c2ccc3nc(SCc4ccc(F)cc4)n(C)c3c2)cc1	inactive: -15.7%	–
Cc1ccc(NS(=O)(=O)c2ccc3c(c2)NC(=O)C(C)C(=O)N3)cc1F (centres undefined)	inactive: 14.4%	–
Cc1cc(C)c2nc(N3CCCC(C(=O)NCc4cccc(Cl)c4)C3)sc2c1 (centres undefined)	inactive: 29.1%	–
CC(C)CN(CC(C)C)C(=O)C1CCCN(S(=O)(=O)c2ccc3c(c2)oc(=O)n3C)C1 (centres undefined)	inactive: -18.1%	–
COc1cccc(NC(=O)c2nn(-c3ccc(C)cc3)c(=O)n(C)c2=O)c1	inactive: -4.38%	–
COc1ccc(CNS(=O)(=O)c2cc3c(cc2C)n(C)c(=O)c(=O)n3C)cc1	inactive: -2.12%	–
CCCCN(C)CCNC(=O)c1c(C)oc2ncnc(N3CCOCC3)c12	inactive: -9.58%	–
Cc1ccc(NC(=O)c2cnn(-c3ccc(C)c(C)c3)c2C2CCN(C(=O)OC(C)(C)C)CC2)c(C)c1	inactive: -19.4%	–
Cc1cccc(NC(=O)Cn2c(=O)n(CCC(C)C)c(=O)c3cccnc32)c1	inactive: -14%	–
CC(NC(=O)c1ccc2c(c1)N(Cc1cccc(F)c1)C(=O)c1ccccc1S2)c1ccccc1 (centres undefined)	inactive: -10.7%	–
Cc1ccc(-n2c(=O)c3c(c4cc(C)ccc4n3C)n(CC(=O)Nc3c(C)cccc3C)c2=O)cc1	inactive: 12.4%	–
O=C(CCSCCc1ccccn1)Nc1cc(F)ccc1F	inactive: -3.39%	–
Cc1ccc(-n2nc(C(=O)N3CCN(c4cccc(C(F)(F)F)c4)CC3)c(=O)n(C)c2=O)cc1	inactive: -18.6%	–
COc1cc(NC(=O)CN2C(=O)C(c3ccc(C)cc3)=NC23CCCCC3)cc(OC)c1	inactive: -9.19%	–
Cc1ccc(CNc2ccc(-c3nc(C(C)C)no3)cc2[N+](=O)[O-])cc1	inactive: -14.3%	–
Cc1ccc(Cn2c(=O)n(Cc3ccco3)c(=O)c3sc4ccccc4c32)cc1	inactive: -5.57%	–

SMILES	activation	Potency
O=c1c2cnn(-c3ccc(Cl)cc3)c2ncn1Cc1ccc(Cl)cc1Cl	inactive: -18%	–
CC1=C(C(=O)Nc2ccccc2)C(c2cccnc2)n2nc(SCc3ccccc3F)nc2N1 (centres undefined)	inactive: -9.74%	–
COc1cccc(CNC(=O)C2CCN(C(=O)N3CCOc4ccc(Cl)cc43)CC2)c1OC	inactive: -6.51%	–
COc1ccc(Cl)cc1NC(=O)c1cc(C)nc2c1c(C)nn2-c1ccccc1	inactive: -11.3%	–
CCC(CC)C(=O)Nc1cc(-c2cccc(C)c2)nn1-c1ccccc1	inactive: -0.17%	–
O=c1c2sc3ccccc3c2n(Cc2ccccc2F)c(=O)n1Cc1ccccc1	inactive: -0.0209%	–
O=C(CC1N=C2c3ccccc3N=C(SCc3ccccc3F)N2C1=O)NCCc1ccccc1 (centres undefined)	inactive: -30.8%	–
CC(=O)N1CCC2(CC1)OC(=O)C(C)=C2C(=O)Nc1cccc(Cl)c1C	inactive: -0.977%	–
Cc1cccc(C(=O)Nc2cc3c(cc2N2CCCCC2)n(C)c(=O)c(=O)n3C)c1	inactive: -15.6%	–
CCCCC(=O)Nc1cc(C)c(O)c(-c2nc3ncccc3o2)c1	inactive: -31.3%	–
CCOC(=O)c1ccc(NC(=O)Cn2nc(SC)c(S(=O)(=O)c3ccc(Cl)cc3)c2N)cc1	inactive: -5.52%	–
CC(C)CC(=O)Nc1nnc(S(=O)(=O)N2CCCCCC2)s1	inactive: -17.4%	–
Cc1cccc(C)c1NC(=O)c1ccc2c(c1)N(Cc1cccc(Cl)c1)C(=O)c1ccccc1S2=O (centres undefined)	inactive: -2.48%	–
Cc1ccc(CCNC(=O)CCN2N=C(c3ccc(C)cc3)CCC2=O)cc1	inactive: -0.656%	–
CCOc1ccc(C(=O)Nc2cc(NC(=O)c3ccco3)ccc2OC)cc1Br	inactive: -10.9%	–
Cc1ccc(Cl)cc1Nc1nc2ccccc2c2nncn12	inactive: -15.1%	–
COc1ccc(-c2nc3cc(NC(=O)Cc4ccc(Cl)cc4)ccc3o2)cc1OC	inactive: -23.4%	–
Cc1ccsc1CCN1C(=O)N(c2ccccc2)C(=O)C1CC(=O)Nc1ccc(F)cc1 (centres undefined)	inactive: -11.8%	–
COc1ccc(CCC(=O)NCc2ccc3c(c2)CCN3C(=O)c2ccc(F)cc2)cc1	inactive: -17.6%	–
Cc1nc(C)c(-c2ccc(SCC(=O)Nc3ccc(Cl)c(Cl)c3)nn2)s1	inactive: -19.5%	–
COc1ccc(OC)c(-n2nnc3c(sc4nc(C)c(Br)c(C)c43)c2=O)c1	inactive: -20.7%	–
COc1ccccc1NC(=O)N1c2ccccc2Sc2ccccc21	inactive: -29.6%	–
